Laboratory results published in patent US20050119224A1, “Use of n-acetyl-d-glucosamine in the manufacture of pharmaceutical useful for adjuvant treatment of perianal disease” (priority 2001, published 2005).

Tested on: Proteus Mirabilis
Assay: Promoting wave test (bio-wave model)
Settings: final concentration of 0.5% on LB plate, 37° C., compared with control
Source text: 1.1 Samples: Pure Compound of Formula (I)
Strain: Proteus Mirabilis (which should comply with the following biological reaction characteristics: dynamics (+), urease (+), lactose (−), glucose (+), H2S (−), phenylalanine deaminase (+).
Culture medium: modified LB culture medium (the component of the composition are: trytones of 1%, yeast extract of 0.5%, sodium chloride 1%, glucose of 0.1%, TTC of 0.002% and pH=7.2˜7.4).

For `CC(=O)N[C@@H]1[C@@H](O)[C@H](O)[C@@H](CO)O[C@H]1O` [compound of formula (I), N-acetyl-D-glucosamine], the “promoting wave function (wave pattern of concentric rings)” value was “there were also many fine waves on each ring emerged”.
